In patent US10548984B2 (priority 2015, dated 2020):
Read-outs that look alike come from different tables or passages of the source. Non-standard residues stand in square brackets, D forms with d. Residues, ends and D or L forms follow the SMILES beside them.

How the values were obtained:
C57BL/6 mice [1] = system: C57BL/6 mice
C57BL/6 mice [2] = system: C57BL/6 mice; remark: listed apart in the source
C57BL/6 mice [3] = details: mouse, in vivo
C57BL/6 mice [4] = details: mouse, in vivo; remark: listed apart in the source
[5] = Experimental: To analyse siRNA integrity in the presence of serum nuclease, naked siRNA or siRNA/peptide complexes (80 pmol) were incubated at 37° C. in 50% mouse serum for up to 72 hours. siRNA complexed with the RVG-9r peptide was included as a control. Aliquots taken at various time points (0 min, 2 hours, 8 hours, 24 hours, 48 hours, and 72 hours) were digested with proteinase K (2 mg/ml, Sigma Aldrich) for 1 hours and frozen in 2× urea-TBE loading buffer. Samples were analysed for the presence of intact siRNA on 15%-urea-polyacrylamide gels in TBE buffer and visualised on a UV-transilluminator subsequent to ethidium, bromide staining (FIG. 13).
[6] = MPTP + siRNA/peptide complex i.v., 20 rpm, max 60 s, 5 days after MPTP
[7] = MPTP + siRNA/peptide complex i.v., 1 to 20 rpm over 5 min
[8] = siRNA complexed with peptide, 50% mouse serum, 37° C.

| Structure (SMILES) | fixed speed rotarod performance compared to control mice (C57BL/6 mice [1]; mouse, in vivo) [%] | accelerated rotarod performance compared to control group (C57BL/6 mice [2]; mouse, in vivo) [%] | TH positive neurons in the SNpc compared to the control group (C57BL/6 mice [3]) [%] | TH-ir fibres in striatum compared to the control group (C57BL/6 mice [4]) [%] | partial stability / partial protection of siRNA (intact siRNA detected) [5] | siRNA integrity retained [5] | fixed speed rotarod performance compared to control mice (C57BL/6 mice [1]; [6]) [%] | accelerated rotarod performance compared to control group (C57BL/6 mice [2]; [7]) [%] | TH positive neurons in the SNpc compared to control (C57BL/6 mice [3]) [%] | TH-ir fibres in striatum compared to saline treated control group (C57BL/6 mice [4]) [%] | partial stability / partial protection of siRNA (intact siRNA detected) [5, 8] | siRNA integrity retained [5, 8] |
| --- | --- | --- | --- | --- | --- | --- | --- | --- | --- | --- | --- | --- |
| CN1CC=C(c2ccccc2)CC1 [MPTP, reference compound] | 30 | 69 | 57 | 43 | – | – | – | – | – | – | – | – |
| CC[C@@H](C)[C@@H](NC(=O)[C@@H](Cc1ccccc1)NC(=O)[C@H](NC(=O)[C@@H](CC(N)=O)NC(=O)[C@@H](CO)NC(=O)[C@@H](CCCNC(=N)N)NC(=O)CNC(=O)[C@@H](CCCCN)NC(=O)CN(C)C(=O)CN(C)C(=O)CN(C)C(=O)CN(C)C(=O)[C@@H](CCCNC(=N)N)NC(=O)[C@@H](CCCNC(=N)N)NC(=O)[C@@H](CCCNC(=N)N)NC(=O)[C@@H](CCCNC(=N)N)NC(=O)[C@@H](CCCNC(=N)N)NC(=O)[C@@H](CCCNC(=N)N)NC(=O)[C@@H](CCCNC(=N)N)NC(=O)[C@@H](CCCNC(=N)N)NC(=O)[C@H](N)CCCNC(=N)N)[C@H](C)O)C(=O)N[C@H](CC(=O)O)C(=O)N[C@H](CS)C(=O)O [Test-RI-peptide, H-rrrrrrrrr-Sar-Sar-Sar-Sar-kGrsntfidc] | – | – | – | – | up to 24 hours | at least 8 hours | 75 | 95 | 82 | 72 | – | – |
| CC[C@H](C)[C@H](NC(=O)[C@H](CC(=O)O)NC(=O)[C@@H](N)CS)C(=O)N[C@@H](Cc1ccccc1)C(=O)N[C@H](C(=O)N[C@@H](CC(N)=O)C(=O)N[C@@H](CO)C(=O)N[C@@H](CCCNC(=N)N)C(=O)NCC(=O)N[C@@H](CCCCN)C(=O)NCC(=O)NCC(=O)NCC(=O)NCC(=O)N[C@H](CCCNC(=N)N)C(=O)N[C@H](CCCNC(=N)N)C(=O)N[C@H](CCCNC(=N)N)C(=O)N[C@H](CCCNC(=N)N)C(=O)N[C@H](CCCNC(=N)N)C(=O)N[C@H](CCCNC(=N)N)C(=O)N[C@H](CCCNC(=N)N)C(=O)N[C@H](CCCNC(=N)N)C(=O)N[C@H](CCCNC(=N)N)C(=O)O)[C@@H](C)O [Test-peptide] (H-CDIFTNSRGKGGGG[dR][dR][dR][dR][dR][dR][dR][dR][dR]-OH; C-terminus assumed) | – | – | – | – | – | – | 85 | 94 | 80 | 77 | up to 24 hours | at least 8 hours |
